Experimental data: the supplement of paper PMC12632987
Whole data set: some 1,800 sequences, median “median log2 fold change of GCK-ALFA target abundance (FLAG IP / Myc IP barcode read proportion)” near 0.14, cut for the lowest 2% near -0.84. The list shows a part of the results.

B1: traf2_out_19_16_1975 (protein)
chain: KEEELKELEERLEKIERRVKELEAYFEANKDTLTREELTDLMVELSELRREAQEIAQKLEELKDYKPEEVKELLERAEEIIERAQRLMNEAYKKYEELLK
B2: traf2_out_8_174_2572 (protein)
chain: DEEKRLKVVADFSTEMADILDEFEEELKKASDLPLEELKKKAEELKKEALEKIDKLKKEWEAKVDEETAKLVQRAANSAKQQIENMAKGAILRKELEDAA
B3: traf2_out_17_162_1570 (protein)
chain: EELEKELEKLKKELEELKKKLEEFKKLLPKFPEMSKEELTDLLVEVSEARRRARELAERLKELGKKLGSEELKKLVEEAEKIAEELNRIANEIYKEIEKK
B4: traf2_out_18_117_1772 (protein)
chain: SEREEIIKELEELAEEVGRAASRLGKAVLEHWEELTPEEKSEAMDVLADLSEVRREALELIHEIKEKNLPLEEAKKKAEELKKKAEEALKRAEEMLEKIK
B5: traf2_out_11_155_702 (protein)
chain: EEKKKLNNELVDKMIEIEEELKEEVKKIIEEAAKKHPEHKEELEKVVKESEPFSGRTFARIAAEKFKELGLEEEAEKIEKLLEEAQKKMNEIYKEIEAKR
B6: traf2_out_16_177_1461 (protein)
chain: EVDKLMDRLVGLSLIQRAARYIVAGKEEEAKKYLEEARKEAEEAGDEETLKRIKELEELAKKNTEEALKKIEELAREAQKEAQRLADEIEELLKKRAEAE
B7: traf2_out_5_63_2345 (protein)
chain: SERDELTALAREADRLVREALEAAKRGEEEEVERLLEEAVKDEELARLALGILRGEERYYKLLGDKPEEAEIARRLRERLEELLERRREERRREEEERRR
B8: traf2_out_3_89_2309 (protein)
chain: AAARAATIAEAERRMDAYAEGFRRSARRVAKEMLADGMSLDTLRGVLEAARSALLEDFRESLREAGLSDEEIDALLARLNARLDAIVDEVVAAAEAERAA
B9: traf2_out_15_180_1316 (protein)
chain: MTEEELEKRIEKANEVADKAQDRLKELLAANPGLSPEERAALRALARSLTTLYFNGEYEEAEAALAAAEARLSPEAAAVARELAEYIKEVVEEAKKELEE
B10: traf2_out_6_3_2506 (protein)
chain: EDEEERERNERAFEELAEMSPETLKTALETELERLRELVADPNASESDVLAAASAAKLLIEVLKKNAEKNPEIKEELEEFIEKAEKELEELMEEWKKKQA
B11: traf2_out_8_174_2566 (protein)
chain: GEREILKIAANVGLEFEKKIEALKEEAKKLLEESPEAALKYVEEEGKKLKEELDKKEEEASKNYSPELQELIKRELNSSKQRVDNLLEGLKLRVEAEKKA
B12: traf2_out_20_3_2057 (protein)
chain: EELEEKIEELLKELEKKLEELKKLLDPEDAKRLEEAWEEVLRAREEGLDEFLVAISRLRRLLLELAERARAEGREEEAALLEEAADIAGKIAHLVYLKIQ
B13: traf2_out_1_27_1010 (protein)
chain: SDEEFRELIREADRALGSLSPEEALAAAREAVRRALELGVGEARHLAVVLILSQSDEELAEALLEAIEEVLREAGVSEEEIEEIRRRAESGRKRLKEALA
B14: traf2_out_11_169_849 (protein)
chain: EEAAKNRAIIDKALELTDKAKAELKEHALALAKEAGLDEAEVKAIFEANAGKSLSAVAAALIDWFKSKGKEDAAAKVLEKYEELQEKINKEMTAFLKELE
B15: traf2_out_20_3_2115 (protein)
chain: KELEEELEKELEEALKLLKEAAKLADPETAKVLEELAKELKKSRELSYSDRLVVVSEIRRKVRELAQKAKEKGDEELAKVLEEAAEKLNRAAGLLMKIIE
B16: traf2_out_18_167_1880 (protein)
chain: SAELEAEYQAASDKLVEYSEIRRWLQLALEALKRSREEALKVLREALEKFPDSEVLKEALEVAETKSDEEFRAFLESKIEELQKKANEEYKKLEELRKKK
B17: traf2_out_14_166_1287 (protein)
chain: MTEEEIKRIREIVDKLEPLTDEAVKKAEEILEKNKEKLSPEDLAELNKLLEIARRNIGSSAINALREMSKIFKKAGLEEAAKEFEKLADELEKKLSELNK
B18: traf2_out_17_162_1481 (protein)
chain: AALAATLAALRAELAALREELERLEKKLEELDSLSKEELTDLLVEASEARRRALRLAERLRALKPEIGAETAGALIAEAEAIAERLQRIANEIYKELEKK
B19: traf2_out_20_3_2257 (protein)
chain: EELRRELERKLEEAERLLEEVEPLLPPEDAARLRELLERAREAFEKDLTDALVYLSELRRAALELAEEARAAGDEETAALLEELAETAQRAMNLVYKLIE

Biological target: T1, TRAF2, Q12933
T1 chain: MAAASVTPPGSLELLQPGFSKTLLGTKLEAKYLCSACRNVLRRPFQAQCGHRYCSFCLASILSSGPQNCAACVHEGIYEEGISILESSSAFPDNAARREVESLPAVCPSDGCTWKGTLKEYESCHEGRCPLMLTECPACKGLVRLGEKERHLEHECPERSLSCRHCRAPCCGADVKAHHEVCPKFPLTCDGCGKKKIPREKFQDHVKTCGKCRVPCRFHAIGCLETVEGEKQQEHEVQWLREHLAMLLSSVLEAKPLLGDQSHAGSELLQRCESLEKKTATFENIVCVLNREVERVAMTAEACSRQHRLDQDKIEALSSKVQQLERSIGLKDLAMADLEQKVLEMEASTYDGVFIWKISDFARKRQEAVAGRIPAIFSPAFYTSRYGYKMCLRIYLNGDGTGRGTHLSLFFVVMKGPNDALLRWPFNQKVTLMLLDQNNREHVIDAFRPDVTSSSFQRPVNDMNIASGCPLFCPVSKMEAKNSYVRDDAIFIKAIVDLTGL
Experiment: median log2 fold change of GCK-ALFA target abundance (FLAG IP / Myc IP barcode read proportion) (log2 ratio); each designed protein is fused to an ALFA-tag nanobody in HEK293 cells to bring the named protein to FLAG-tagged glucokinase (GCK); Myc marks an untargeted standard; higher = target protein stabilised (more abundant)
Conditions: target protein: 3xFLAG-MCP-GCK-ALFA reporter; HEK293 landing pad (RPLP)
Procedure, shortened: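 Binders fused to an ALFA nanobody were recombined as a library into HEK293 landing-pad cells, which were induced with 2 μg mL^−1 doxycycline and then transfected to express a FLAG-tagged target and a Myc-tagged standard. After 48 h, circular RNA barcodes recovered by anti-FLAG and anti-Myc immunoprecipitation of lysates were reverse transcribed, amplified and sequenced. Each binder's target abundance is the median log2 ratio of FLAG to Myc barcode read proportions, from barcodes present at ≥10^−7 in both replicates, binders carrying ≥3 barcodes per replicate, a 10^−6 pseudocount and pooled replicates.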

Row | Binder | median log2 fold change
1 | B1 | 0.162
2 | B2 | 0.209
3 | B3 | 0.752
4 | B4 | 0.12
5 | B5 | 0.328
6 | B6 | -0.0133
7 | B7 | 0.129
8 | B8 | 0.0782
9 | B9 | 0.178
10 | B10 | 0.236
11 | B11 | 0.206
12 | B12 | -0.13
13 | B13 | -0.00892
14 | B14 | 0.136
15 | B15 | 0.0891
16 | B16 | 0.282
17 | B17 | 0.427
18 | B18 | -0.17
19 | B19 | 0.288
